# Experimental data from the supplement of paper PMC8728848.
# Some of the results follow.
# B1: DETC sTCR (Mus musculus) (protein)
# chain: LDVYLEPVAKTFTVVAGDPASFYCTVTGGDMKNYHMSWYKKNGTNALFLVYKLNSNSTDGGKSNLKGKINISKNQFILDIQKATMKDAGTYYCGSDIGGSSWDTRQMFFGTGIELFVEPKSQPPAKPSVFIMKNGTNVACLVKDFYPKEVTISLRSSKKIVEFDPAIVISPSGKYSAVKLGQYGDSNSVTCSVQHNSETVHSTDFEPYANSFNNEKLPEPENDTQISEPCSSADLVPRGSTTAPSAQLKKKLQALKKKNAQLKWKLQALKKKLAQHHHHHHDSWISQDQLSFTRRPNKTVHISCKLSGVPLHNTIVHWYQLKEGEPLRRIFYGSVKTYKQDKSHSRLEIDEKDDGTFYLIINNVVTSDEATYYCACWDSSGFHKVFAEGTKLIVIPSDKRLDADISPKPTIFLPSVAETNLHKTGTYLCLLEKFFPDVIRVYWKEKDGNTILDSQEGDTLKTNDTYMKFSWLTVPERAMGKEHRCIVKHENNKGGADQEIFFPSIKKVAVSTKPTTCSSADLVPRGSTTAPSAQLEKELQALEKENAQLEWELQALEKELAQLNDIFEAQKIEW
# How the values were obtained:
# Assay in all cases: glycan array binding signal (z-score within array); higher = stronger binding
# Conditions in all cases: glycan notation: IUPAC condensed, linker removed
# [1] = target: Neu5Ac(a2-3)Gal(b1-4)[Fuc(a1-3)]GlcNAc(b1-3)Gal
# Method in brief: (§1)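 From the Consortium for Functional Glycomics database, 3228 arrays were curated, keeping only those whose protein sequence was available. Binding is given as a within-array Z-score averaged across arrays sharing a protein sequence and across linkers. Negative Z-scores can be read as non-binding.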
# [2] = target: Neu5Ac(a2-3)Gal(b1-4)[Fuc(a1-3)]GlcNAc(b1-3)Gal(b1-4)GlcNAc
# Method in brief: as §1
# [3] = target: Neu5Ac(a2-3)Gal(b1-4)[Fuc(a1-3)]GlcNAc(b1-3)Gal(b1-4)[Fuc(a1-3)]GlcNAc(b1-3)Gal(b1-4)[Fuc(a1-3)]GlcNAc
# Method in brief: as §1
# [4] = target: Neu5Ac(a2-3)Gal(b1-4)[Fuc(a1-3)]GlcNAc(b1-3)GalNAc
# Method in brief: as §1
# [5] = target: Neu5Ac(a2-3)Gal(b1-4)[Fuc(a1-3)]GlcNAc(b1-6)[Gal(b1-3)]GalNAc
# Method in brief: as §1
# [6] = target: Neu5Ac(a2-3)Gal(b1-4)[Fuc(a1-3)]GlcNAc(b1-6)[Neu5Ac(a2-3)Gal(b1-3)]GalNAc
# Method in brief: as §1
# [7] = target: Neu5Ac(a2-3)Gal(b1-4)[Fuc(a1-3)]GlcNAc6S
# Method in brief: as §1
# [8] = target: Neu5Ac(a2-3)Gal6S(b1-4)GlcNAc
# Method in brief: as §1
# [9] = target: Neu5Ac(a2-3)Gal6S(b1-4)[Fuc(a1-3)]GlcNAc
# Method in brief: as §1
# Neu5Ac(a2-3)GalNAc = target: Neu5Ac(a2-3)GalNAc
# Method in brief: as §1
# [10] = target: Neu5Ac(a2-3)GalNAc(b1-4)GlcNAc
# Method in brief: as §1
# [11] = target: Neu5Ac(a2-3)[GalNAc(b1-4)]Gal(b1-4)Glc
# Method in brief: as §1
# [12] = target: Neu5Ac(a2-3)[GalNAc(b1-4)]Gal(b1-4)GlcNAc
# Method in brief: as §1
# [13] = target: Neu5Ac(a2-3)[Neu5Ac(a2-6)]GalNAc
# Method in brief: as §1
# Neu5Ac(a2-6)Gal = target: Neu5Ac(a2-6)Gal
# Method in brief: as §1
# Neu5Ac(a2-6)Gal(b1-4)Glc = target: Neu5Ac(a2-6)Gal(b1-4)Glc
# Method in brief: as §1
# [14] = target: Neu5Ac(a2-6)Gal(b1-4)GlcNAc
# Method in brief: as §1
# [15] = target: Neu5Ac(a2-6)Gal(b1-4)GlcNAc(b1-2)Man(a1-3)Man(b1-4)GlcNAc(b1-4)GlcNAc
# Method in brief: as §1
# [16] = target: Neu5Ac(a2-6)Gal(b1-4)GlcNAc(b1-2)Man(a1-3)[Gal(b1-4)GlcNAc(b1-2)Man(a1-6)]Man(b1-4)GlcNAc(b1-4)GlcNAc
# Method in brief: as §1
# [17] = target: Neu5Ac(a2-6)Gal(b1-4)GlcNAc(b1-2)Man(a1-3)[GlcNAc(b1-2)Man(a1-6)]Man(b1-4)GlcNAc(b1-4)GlcNAc
# Method in brief: as §1
# [18] = target: Neu5Ac(a2-6)Gal(b1-4)GlcNAc(b1-2)Man(a1-3)[GlcNAc(b1-2)Man(b1-4)GlcNAc(b1-2)Man(a1-6)]Man(b1-4)GlcNAc(b1-4)GlcNAc
# Method in brief: as §1
# [19] = target: Neu5Ac(a2-6)Gal(b1-4)GlcNAc(b1-2)Man(a1-3)[Man(a1-6)]Man(b1-4)GlcNAc(b1-4)GlcNAc
# Method in brief: as §1
# [20] = target: Neu5Ac(a2-6)Gal(b1-4)GlcNAc(b1-2)Man(a1-3)[Neu5Ac(a2-6)Gal(b1-4)GlcNAc(b1-2)Man(a1-6)]Man(b1-4)GlcNAc(b1-4)GlcNAc
# Method in brief: as §1
# [21] = target: Neu5Ac(a2-6)Gal(b1-4)GlcNAc(b1-2)Man(a1-6)Man(b1-4)GlcNAc(b1-4)GlcNAc
# Method in brief: as §1
# [22] = target: Neu5Ac(a2-6)Gal(b1-4)GlcNAc(b1-2)Man(a1-6)[Gal(b1-4)GlcNAc(b1-2)Man(a1-3)]Man(b1-4)GlcNAc(b1-4)GlcNAc
# Method in brief: as §1
# [23] = target: Neu5Ac(a2-6)Gal(b1-4)GlcNAc(b1-2)Man(a1-6)[GlcNAc(b1-2)Man(a1-3)]Man(b1-4)GlcNAc(b1-4)GlcNAc
# Method in brief: as §1
# [24] = target: Neu5Ac(a2-6)Gal(b1-4)GlcNAc(b1-2)Man(a1-6)[Man(a1-3)]Man(b1-4)GlcNAc(b1-4)GlcNAc
# Method in brief: as §1
# [25] = target: Neu5Ac(a2-6)Gal(b1-4)GlcNAc(b1-3)Gal(b1-3)GlcNAc
# Method in brief: as §1
# [26] = target: Neu5Ac(a2-6)Gal(b1-4)GlcNAc(b1-3)Gal(b1-4)GlcNAc
# Method in brief: as §1
# [27] = target: Neu5Ac(a2-6)Gal(b1-4)GlcNAc(b1-3)Gal(b1-4)GlcNAc(b1-3)Gal(b1-4)GlcNAc
# Method in brief: as §1
# [28] = target: Neu5Ac(a2-6)Gal(b1-4)GlcNAc(b1-3)Gal(b1-4)[Fuc(a1-3)]GlcNAc(b1-3)Gal(b1-4)[Fuc(a1-3)]GlcNAc
# Method in brief: as §1
# [29] = target: Neu5Ac(a2-6)Gal(b1-4)GlcNAc(b1-3)GalNAc
# Method in brief: as §1
# [30] = target: Neu5Ac(a2-6)Gal(b1-4)GlcNAc6S
# Method in brief: as §1
# Neu5Ac(a2-6)GalNAc = target: Neu5Ac(a2-6)GalNAc
# Method in brief: as §1
# [31] = target: Neu5Ac(a2-6)GalNAc(b1-4)GlcNAc
# Method in brief: as §1
# [32] = target: Neu5Ac(a2-6)GlcNAc(b1-4)GlcNAc
# Method in brief: as §1
# [33] = target: Neu5Ac(a2-6)GlcNAc(b1-4)GlcNAc(b1-4)GlcNAc
# Method in brief: as §1
# Neu5Ac(a2-8)Neu5Ac = target: Neu5Ac(a2-8)Neu5Ac
# Method in brief: as §1
# [34] = target: Neu5Ac(a2-8)Neu5Ac(a2-3)Gal(b1-4)Glc
# Method in brief: as §1
# [35] = target: Neu5Ac(a2-8)Neu5Ac(a2-3)[GalNAc(b1-4)]Gal(b1-4)Glc
# Method in brief: as §1
# [36] = target: Neu5Ac(a2-8)Neu5Ac(a2-8)Neu5Ac
# Method in brief: as §1
# [37] = target: Neu5Ac(a2-8)Neu5Ac(a2-8)Neu5Ac(a2-3)Gal(b1-4)Glc
# Method in brief: as §1
# [38] = target: Neu5Ac(a2-8)Neu5Ac(a2-8)Neu5Ac(a2-3)[GalNAc(b1-4)]Gal(b1-4)Glc
# Method in brief: as §1
# [39] = target: Neu5Ac(a2-8)Neu5Ac(a2-8)Neu5Ac(a2-8)Neu5Ac(a2-3)[GalNAc(b1-4)]Gal(b1-4)Glc
# Method in brief: as §1
# [40] = target: Neu5Ac(b2-6)Gal(b1-4)GlcNAc
# Method in brief: as §1
# Neu5Ac(b2-6)GalNAc = target: Neu5Ac(b2-6)GalNAc
# Method in brief: as §1
# [41] = target: Neu5Ac9Ac(a2-3)Gal(b1-3)GlcNAc
# Method in brief: as §1
# [42] = target: Neu5Ac9Ac(a2-3)Gal(b1-4)GlcNAc
# Method in brief: as §1
# [43] = target: Neu5Ac9Ac(a2-6)Gal(b1-4)GlcNAc
# Method in brief: as §1
# [44] = target: Neu5Gc(a2-3)Gal(b1-3)GlcNAc
# Method in brief: as §1
# [45] = target: Neu5Gc(a2-3)Gal(b1-3)[Fuc(a1-4)]GlcNAc
# Method in brief: as §1
# Neu5Gc(a2-3)Gal(b1-4)Glc = target: Neu5Gc(a2-3)Gal(b1-4)Glc
# Method in brief: as §1
# [46] = target: Neu5Gc(a2-3)Gal(b1-4)GlcNAc
# Method in brief: as §1
# [47] = target: Neu5Gc(a2-3)Gal(b1-4)[Fuc(a1-3)]GlcNAc
# Method in brief: as §1
# [48] = target: Neu5Gc(a2-6)Gal(b1-4)GlcNAc
# Method in brief: as §1
# Neu5Gc(a2-6)GalNAc = target: Neu5Gc(a2-6)GalNAc
# Method in brief: as §1
# [49] = target: Neu5Gc(b2-6)Gal(b1-4)GlcNAc
# Method in brief: as §1
binder,measurement,setting,value
B1,glycan array binding signal (z-score),[1],0.467
same,glycan array binding signal (z-score),[2],-0.596
same,glycan array binding signal (z-score),[3],-0.556
same,glycan array binding signal (z-score),[4],2.34
same,glycan array binding signal (z-score),[5],-0.339
same,glycan array binding signal (z-score),[6],0.399
same,glycan array binding signal (z-score),[7],-0.629
same,glycan array binding signal (z-score),[8],-0.272
same,glycan array binding signal (z-score),[9],-0.056
same,glycan array binding signal (z-score),Neu5Ac(a2-3)GalNAc,-0.074
same,glycan array binding signal (z-score),[10],-0.407
same,glycan array binding signal (z-score),[11],2.27
same,glycan array binding signal (z-score),[12],-0.551
same,glycan array binding signal (z-score),[13],0.574
same,glycan array binding signal (z-score),Neu5Ac(a2-6)Gal,0.295
same,glycan array binding signal (z-score),Neu5Ac(a2-6)Gal(b1-4)Glc,-0.57
same,glycan array binding signal (z-score),[14],-0.218
same,glycan array binding signal (z-score),[15],-0.505
same,glycan array binding signal (z-score),[16],-0.487
same,glycan array binding signal (z-score),[17],-0.244
same,glycan array binding signal (z-score),[18],-0.565
same,glycan array binding signal (z-score),[19],-0.499
same,glycan array binding signal (z-score),[20],-0.408
same,glycan array binding signal (z-score),[21],-0.588
same,glycan array binding signal (z-score),[22],-0.567
same,glycan array binding signal (z-score),[23],0.085
same,glycan array binding signal (z-score),[24],-0.062
same,glycan array binding signal (z-score),[25],0.384
same,glycan array binding signal (z-score),[26],0.071
same,glycan array binding signal (z-score),[27],1.72
same,glycan array binding signal (z-score),[28],-0.522
same,glycan array binding signal (z-score),[29],1.06
same,glycan array binding signal (z-score),[30],0.228
same,glycan array binding signal (z-score),Neu5Ac(a2-6)GalNAc,-0.193
same,glycan array binding signal (z-score),[31],-0.568
same,glycan array binding signal (z-score),[32],-0.355
same,glycan array binding signal (z-score),[33],5.83
same,glycan array binding signal (z-score),Neu5Ac(a2-8)Neu5Ac,1.06
same,glycan array binding signal (z-score),[34],-0.589
same,glycan array binding signal (z-score),[35],-0.554
same,glycan array binding signal (z-score),[36],-0.216
same,glycan array binding signal (z-score),[37],1.88
same,glycan array binding signal (z-score),[38],0.445
same,glycan array binding signal (z-score),[39],-0.568
same,glycan array binding signal (z-score),[40],0.592
same,glycan array binding signal (z-score),Neu5Ac(b2-6)GalNAc,-0.773
same,glycan array binding signal (z-score),[41],-0.785
same,glycan array binding signal (z-score),[42],0.262
same,glycan array binding signal (z-score),[43],-0.574
same,glycan array binding signal (z-score),[44],-0.599
same,glycan array binding signal (z-score),[45],0.595
same,glycan array binding signal (z-score),Neu5Gc(a2-3)Gal(b1-4)Glc,0.254
same,glycan array binding signal (z-score),[46],0.873
same,glycan array binding signal (z-score),[47],-0.502
same,glycan array binding signal (z-score),[48],0.806
same,glycan array binding signal (z-score),Neu5Gc(a2-6)GalNAc,-0.641
same,glycan array binding signal (z-score),[49],-0.565
